Laboratory results: publication PMC9911399, “Two distinct binding modes provide the RNA-binding protein RbFox with extraordinary sequence specificity”
Positions count from the first letter of the chain named. This is one part of the list.

T1: RBFOX1 RRM RbFoxmut (Fox-RRM*) (Homo sapiens, UniProt Q9NWB1 109-208, R118D;E147R;N151S;E152T)
T1 sequence: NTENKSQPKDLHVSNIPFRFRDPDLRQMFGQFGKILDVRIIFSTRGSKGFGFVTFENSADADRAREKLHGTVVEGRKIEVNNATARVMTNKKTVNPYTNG

B1: AAAAACG (DNA:RNA)
RNA: GGGAGACCGGAAUUCAGAUUGUCCAAAAACGUUAAAUCCCGUCGUAGCCACCA
DNA 1: CAATCTGAATTCCGGTCTCCC
DNA 2: TGGTGGCTACGACGGGATT
B2: GGUUAAG (DNA:RNA)
RNA: B1 RNA with A25G, A26G, A27U, A28U, C30A
DNA 1: CAATCTGAATTCCGGTCTCCC
DNA 2: TGGTGGCTACGACGGGATT
B3: AUACAGC (DNA:RNA)
RNA: B1 RNA with A26U, A28C, C30G, G31C
DNA 1: CAATCTGAATTCCGGTCTCCC
DNA 2: TGGTGGCTACGACGGGATT
B4: ACCAUUC (DNA:RNA)
RNA: B1 RNA with A26C, A27C, A29U, C30U, G31C
DNA 1: CAATCTGAATTCCGGTCTCCC
DNA 2: TGGTGGCTACGACGGGATT
B5: AUUCUGU (DNA:RNA)
RNA: B1 RNA with A26U, A27U, A28C, A29U, C30G, G31U
DNA 1: CAATCTGAATTCCGGTCTCCC
DNA 2: TGGTGGCTACGACGGGATT
B6: GCUAAUC (DNA:RNA)
RNA: B1 RNA with A25G, A26C, A27U, C30U, G31C
DNA 1: CAATCTGAATTCCGGTCTCCC
DNA 2: TGGTGGCTACGACGGGATT
B7: UUGAGCG (DNA:RNA)
RNA: B1 RNA with A25U, A26U, A27G, A29G
DNA 1: CAATCTGAATTCCGGTCTCCC
DNA 2: TGGTGGCTACGACGGGATT
B8: GGAAGGA (DNA:RNA)
RNA: B1 RNA with A25G, A26G, A29G, C30G, G31A
DNA 1: CAATCTGAATTCCGGTCTCCC
DNA 2: TGGTGGCTACGACGGGATT
B9: GCUCGUA (DNA:RNA)
RNA: GGGAGACCGGAAUUCAGAUUGUCCGCUCGUAUUAAAUCCCGUCGUAGCCACCA
DNA 1: CAATCTGAATTCCGGTCTCCC
DNA 2: TGGTGGCTACGACGGGATT
B10: AUCCCUA (DNA:RNA)
RNA: B9 RNA with G25A, C26U, U27C, G29C
DNA 1: CAATCTGAATTCCGGTCTCCC
DNA 2: TGGTGGCTACGACGGGATT
B11: UCCAGAA (DNA:RNA)
RNA: B9 RNA with G25U, U27C, C28A, U30A
DNA 1: CAATCTGAATTCCGGTCTCCC
DNA 2: TGGTGGCTACGACGGGATT
B12: UAAGCCC (DNA:RNA)
RNA: B1 RNA with A25U, A28G, A29C, G31C
DNA 1: CAATCTGAATTCCGGTCTCCC
DNA 2: TGGTGGCTACGACGGGATT
B13: UCGUCUU (DNA:RNA)
RNA: B9 RNA with G25U, U27G, C28U, G29C, A31U
DNA 1: CAATCTGAATTCCGGTCTCCC
DNA 2: TGGTGGCTACGACGGGATT
B14: UUUUACC (DNA:RNA)
RNA: B1 RNA with A25U, A26U, A27U, A28U, G31C
DNA 1: CAATCTGAATTCCGGTCTCCC
DNA 2: TGGTGGCTACGACGGGATT
B15: UGCCGUA (DNA:RNA)
RNA: B9 RNA with G25U, C26G, U27C
DNA 1: CAATCTGAATTCCGGTCTCCC
DNA 2: TGGTGGCTACGACGGGATT
B16: CCGCACC (DNA:RNA)
RNA: B1 RNA with A25C, A26C, A27G, A28C, G31C
DNA 1: CAATCTGAATTCCGGTCTCCC
DNA 2: TGGTGGCTACGACGGGATT
B17: CUUAUUG (DNA:RNA)
RNA: B1 RNA with A25C, A26U, A27U, A29U, C30U
DNA 1: CAATCTGAATTCCGGTCTCCC
DNA 2: TGGTGGCTACGACGGGATT
B18: AUGAUCA (DNA:RNA)
RNA: B1 RNA with A26U, A27G, A29U, G31A
DNA 1: CAATCTGAATTCCGGTCTCCC
DNA 2: TGGTGGCTACGACGGGATT
B19: CUCCUCU (DNA:RNA)
RNA: B1 RNA with A25C, A26U, A27C, A28C, A29U, G31U
DNA 1: CAATCTGAATTCCGGTCTCCC
DNA 2: TGGTGGCTACGACGGGATT
B20: UCCACCC (DNA:RNA)
RNA: B1 RNA with A25U, A26C, A27C, A29C, G31C
DNA 1: CAATCTGAATTCCGGTCTCCC
DNA 2: TGGTGGCTACGACGGGATT

Biological target: T1, RBFOX1 RRM RbFoxmut (Fox-RRM*)
Test: EMSA; HiTS-Eq, 1 nM pool, 10 min; buffer printed only for the single-RNA assays: 10 mM Tris pH 7.5, 150 mM NaCl, 3.4 mM EDTA, 0.001% NP-40, 30 C
Conditions: tags: His6 N-terminal (pET28a); label: 5' 32P
Outline: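 These values rest on relative association constants, computed from read-count changes of each RNA species versus the control reaction and normalised to the cognate motif. Reads came from free RNA recovered by 8% native PAGE after purified RbFox RRM (wild type or mutant) at increasing concentrations was equilibrated for 10 min in 50 µL with 1 nM of a 5′-radiolabelled pool with 7 randomized nucleotides and DNA-annealed flanks.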

Binder | binding signal
B1 | 0.108 KA relative to UGCAUGU
B2 | 0.0741 KA relative to UGCAUGU
B3 | 0.0938 KA relative to UGCAUGU
B4 | 0.0618 KA relative to UGCAUGU
B5 | 0.125 KA relative to UGCAUGU
B6 | 0.0635 KA relative to UGCAUGU
B7 | 0.189 KA relative to UGCAUGU
B8 | 0.0476 KA relative to UGCAUGU
B9 | 0.135 KA relative to UGCAUGU
B10 | 0.113 KA relative to UGCAUGU
B11 | 0.0979 KA relative to UGCAUGU
B12 | 0.0727 KA relative to UGCAUGU
B13 | 0.0605 KA relative to UGCAUGU
B14 | 0.0856 KA relative to UGCAUGU
B15 | 0.131 KA relative to UGCAUGU
B16 | 0.0967 KA relative to UGCAUGU
B17 | 0.134 KA relative to UGCAUGU
B18 | 0.0928 KA relative to UGCAUGU
B19 | 0.11 KA relative to UGCAUGU
B20 | 0.0806 KA relative to UGCAUGU
